Laboratory results taken from PubChem BioAssay AID588342 (National Center for Advancing Translational Sciences (NCATS), 2011).
In all, about 360,000 compounds went through this assay and about 25,000 (6.9%) were called active. The shares of active, inactive and inconclusive entries below differ from those in the screen. Calls come from the whole dose curve; as a rule, active = well fitted inhibition curve with a large enough effect; inconclusive = small, poorly fitted or top-dose-only effect; inactive = flat fitted curve, though single readings scatter. Potencies beside an inconclusive call are fits to weak or partial responses and may not hold up.

molecular target: Luciferin 4-monooxygenase (Photinus pyralis) (UniProt P08659); assay: qHTS profiling assay for firefly luciferase inhibitor/activator using purifed enzyme and Km concentrations of substrates (counterscreen for miR-21 project); conditions: purified FLuc, luminescence inhibition; series mostly up to 57.5 µM; activity change, negative = inhibition: at the top concentration; note: nearly all actives have a fitted effect of over 55% in size;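 for activity change, negative = inhibition: plate controls were vehicle for no effect and reference inhibitor for full effect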
Sequence of UniProt P08659 (P08659 whole entry, looked up): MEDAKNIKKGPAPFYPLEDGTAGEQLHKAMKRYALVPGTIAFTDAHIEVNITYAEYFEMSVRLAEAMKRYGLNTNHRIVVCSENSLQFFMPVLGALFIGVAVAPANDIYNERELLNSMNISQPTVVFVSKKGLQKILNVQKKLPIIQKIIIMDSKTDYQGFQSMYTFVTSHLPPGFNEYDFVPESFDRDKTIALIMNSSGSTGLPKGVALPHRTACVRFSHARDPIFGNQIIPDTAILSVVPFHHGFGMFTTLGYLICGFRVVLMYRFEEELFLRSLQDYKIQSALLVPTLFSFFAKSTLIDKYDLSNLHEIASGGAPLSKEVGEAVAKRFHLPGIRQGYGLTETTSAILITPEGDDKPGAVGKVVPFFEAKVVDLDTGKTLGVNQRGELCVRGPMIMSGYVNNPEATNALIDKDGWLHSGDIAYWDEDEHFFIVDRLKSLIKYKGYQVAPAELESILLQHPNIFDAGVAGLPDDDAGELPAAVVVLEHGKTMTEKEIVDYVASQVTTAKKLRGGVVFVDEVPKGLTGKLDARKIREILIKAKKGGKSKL
Summary of the method: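 Purified P. pyralis luciferase, 10 nM final, with Km-level 10 uM D-luciferin and 10 uM ATP in 50 mM Tris acetate pH 7.5, 10 mM Mg acetate, 0.01% Tween-20, 0.05% BSA; 6-point qHTS titration about 60 µM downward; luminescence read.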
Potency is the fitted concentration of half-maximal effect; tags give direction and shape of the fitted curve.

| SMILES | Potency | activity change, negative = inhibition |
| --- | --- | --- |
| O=C1NC(=O)N(c2ccccc2)C(=O)/C1=C/c1coc2ccc(O)cc2c1=O | inconclusive: 26.9 µM [inhibitor, single point] | – |
| COc1cc(CN=C(C)c2c(O)n(C)c(=O)n(C)c2=O)cc(OC)c1 | – | inactive: -0.604% |
| COc1cc(C=C2C(=O)NC(=O)NC2=O)ccc1OS(=O)(=O)c1ccccc1[N+](=O)[O-] | inconclusive: 30.1 µM [inhibitor, single point] | – |
| CC1=C(C(=O)O)N2C(=O)C(NC(=O)Cc3ccccc3)C2SC1 (stereo not drawn) | inconclusive: 30.1 µM [inhibitor, partial curve, poor fit] | – |
| CN1C(=O)NC(=O)/C(=C\c2ccc([N+](=O)[O-])o2)C1=O | inconclusive: 21.3 µM [inhibitor, single point] | – |
| O=C(N/N=C/c1ccccc1OC(=O)N1CCOCC1)c1cccs1 | inconclusive: 26.9 µM [inhibitor, partial curve, poor fit] | – |
| CCOc1ccc2nc(N=Nc3c(O)[nH]c(=O)[nH]c3=O)sc2c1 | inconclusive: 16.9 µM [inhibitor, partial curve] | – |
| O=C1CC(c2ccccc2Br)c2c(c3ccccc3oc2=O)O1 (stereo not drawn) | inconclusive: 8.49 µM [inhibitor, partial curve] | – |
| Cc1oc(-c2cccc(Cl)c2)nc1CN1CCC(C(=O)NCCCN2CCN(c3cccc(Cl)c3)CC2)CC1 | inconclusive: 37.9 µM [inhibitor, partial curve, poor fit] | – |
| COc1ccc(CC(=O)Nc2cc(Cl)ccc2C(=O)O)cc1 | inconclusive: 15.1 µM [inhibitor, partial curve] | – |
| Nc1c(C(=O)NCc2ccco2)c2nc3ccccc3nc2n1CCN1CCCCC1 | – | inactive: 0.539% |
| Cc1cccc(N2C(=O)NC(=O)/C(=C\c3ccc(N4CCOCC4)cc3)C2=O)c1 | inconclusive: 37.9 µM [inhibitor, single point] | – |
| Cc1cc(N(CCCl)CCCl)ccc1/C=N/NC(=O)c1ccco1 | inconclusive: 21.3 µM [inhibitor, partial curve] | – |
| O=[N+]([O-])c1ccc(N2CCCCCC2)c2ncccc12 | inconclusive: 37.9 µM [inhibitor, partial curve, poor fit] | – |
| CCOc1ccccc1Oc1coc2cc(OC(=O)c3ccco3)ccc2c1=O | active: 15.1 µM | – |
| COc1ccc(CN2C(=O)NC(=O)/C(=C\c3cc(OC)c(OC)c(OC)c3)C2=O)cc1 | active: 19 µM | – |
| Cc1ccc(-c2nn(Cc3ccccc3)cc2C=O)cc1C | active: 26.9 µM | – |
| Cc1ccc(/C=C2\C(=O)NC(=O)N(Cc3ccccc3Cl)C2=O)o1 | inconclusive: 30.1 µM [inhibitor, single point] | – |
| O=C1CN=C(c2ccc[nH]2)c2cc(Cl)ccc2N1 | – | inactive: -1.1% |
| O=c1[nH]c(O)c(N=Nc2ccc([N+](=O)[O-])cc2)c(=O)[nH]1 | inconclusive: 23.9 µM [inhibitor, partial curve, poor fit] | – |
| O=C1NC(=O)C(=Cc2ccc(-c3ccc(S(=O)(=O)N4CCOCC4)cc3)o2)C(=O)N1 | inconclusive: 2.69 µM [inhibitor, full curve] | – |

| SMILES | Potency | activity change, negative = inhibition |
| --- | --- | --- |
| Cc1ccc(/C=C/C(=O)C2C(=O)c3ccccc3C2=O)cc1 | active: 0.19 µM | – |
| Cc1cc(C)cc(N2C(=O)NC(=O)/C(=C/c3cccn3-c3ccc(Cl)cc3)C2=O)c1 | – | inactive: -0.429% |
| S=c1[nH]nc(Cn2c(-c3ccccn3)nc3ccccc32)n1-c1ccc2c(c1)OCCO2 | inconclusive: 26.9 µM [inhibitor, partial curve] | – |
| CSc1ncc(/C=C2/C(=O)NC(=O)N(c3ccc(Cl)cc3)C2=O)cn1 | inconclusive: 15.1 µM [inhibitor, partial curve] | – |
| O=C1NC(=O)N(Cc2ccccc2)C(=O)/C1=C/c1cnc(-c2ccccc2)nc1 | inconclusive: 13.5 µM [inhibitor, partial curve] | – |
| C=CCN1C(=O)/C(=C/c2ccc3c(c2)CCCN3CCC)C(=O)NC1=S | inconclusive: 23.9 µM [inhibitor, partial curve, poor fit] | – |
| Oc1ccc(/C=N/NP(=S)(c2ccccc2)c2ccccc2)cc1 | inconclusive: 16.9 µM [inhibitor, partial curve, poor fit] | – |
| O=C(N/N=C/c1c(O)n(Cc2ccccc2)c(=O)[nH]c1=O)c1ccccc1 | inconclusive: 23.9 µM [inhibitor, partial curve, poor fit] | – |
| Cc1ccc(-n2nc(C)c3c2OC(N)=C(C#N)C3c2cccs2)cc1 (stereo not drawn) | inconclusive: 15.1 µM [inhibitor, partial curve] | – |
| O=C(Nc1ccc(Br)cc1C(=O)O)c1ccc2c(c1)C(=O)N(Cc1ccccc1)C2=O | inconclusive: 37.9 µM [inhibitor, partial curve, poor fit] | – |
| CN1C(=O)C(=Cc2ccc(N3CCCCC3)o2)C(=O)N(C)C1=S | inconclusive: 3.38 µM [inhibitor, full curve] | – |
| Cn1cnc2cc(NC(=O)c3ccc(Cl)cc3)ccc21 | active: 12 µM | – |
| COc1cc(/C=C/c2nc3ccccc3c(=O)n2-c2ccc(O)cc2)ccc1O | inconclusive: 23.9 µM [inhibitor, single point] | – |
| COc1ccc(-c2nc3ccccc3n2OC(=O)N(C)C)cc1 | inconclusive: 30.1 µM [inhibitor, partial curve, poor fit] | – |
| N=Cc1c(O)n(-c2ccc(C34CC5CC(CC(C5)C3)C4)cc2)c(=O)[nH]c1=O | inconclusive: 6.75 µM [inhibitor, partial curve] | – |
| O=c1[nH]sc2cc(F)ccc12 | inconclusive: 12 µM [inhibitor, partial curve] | – |
| O=C1NC(=O)N(c2ccc3c(c2)OCO3)C(=O)/C1=C\c1ccc(-c2ccccc2C(=O)O)o1 | active: 15.1 µM | – |
| Cc1cc(C)cc(OCCOc2cccc(C=C3C(=O)NC(=O)NC3=O)c2)c1 | inconclusive: 33.8 µM [inhibitor, single point] | – |
| O=c1[nH]c(=O)n(CC2CCCO2)c(O)c1/C=C1\C=Nc2ccccc21 (stereo not drawn) | active: 16.9 µM | – |
| Cc1ccc(-c2cc(C(=O)N3CCC4(CC3)OCCO4)no2)cc1 | inconclusive: 16.9 µM [inhibitor, partial curve] | – |
| CN(C)C(=O)Oc1ccc([N+](=O)[O-])cc1 | – | inactive: -2.23% |

| SMILES | Potency | activity change, negative = inhibition |
| --- | --- | --- |
| CC(C)c1ccc(N=Cc2c(O)n(C3CC3)c(=S)[nH]c2=O)cc1 | inconclusive: 6.75 µM [inhibitor, full curve] | – |
| Cc1ccc(-n2cc(CNC(C)Cc3cnccn3)c(-c3cccc(C)c3)n2)cc1 (stereo not drawn) | inconclusive: 21.3 µM [inhibitor, partial curve, poor fit] | – |
| O=C(Nc1ccccc1Cl)Oc1ccc(Cl)cc1Cl | inconclusive: 23.9 µM [inhibitor, partial curve, poor fit] | – |
| Cc1nc2ccc(NC(=O)c3ccc(Cl)s3)cc2s1 | inconclusive: 2.39 µM [inhibitor, full curve] | – |
| Cc1ccc(N2C(=O)NC(=O)/C(=C\c3cn(CC(=O)O)c4ccccc34)C2=O)cc1 | inconclusive: 23.9 µM [inhibitor, single point] | – |
| Cc1cccc(N2C(=O)NC(=O)/C(=C/c3cc4c(cc3[N+](=O)[O-])OCO4)C2=O)c1 | inconclusive: 21.3 µM [inhibitor, partial curve] | – |
| Cc1noc(NS(=O)(=O)c2ccc(NC(=O)CCCOc3ccc(Cl)cc3Cl)cc2)c1C | inconclusive: 37.9 µM [inhibitor, single point] | – |
| CNS(=O)(=O)c1cc(NC(=O)c2cccc3cccnc23)ccc1C | inconclusive: 26.9 µM [inhibitor, partial curve] | – |
| Cn1c(O)c(/C=N/NC(=O)c2ccncc2)c(=O)n(C)c1=S | inconclusive: 26.9 µM [inhibitor, single point] | – |
| Nc1nc(N)nc(-c2ccc(Oc3ccccc3)cc2)n1 | inconclusive: 26.9 µM [inhibitor, single point] | – |
| COc1ccc(OC)c(/C=N/OC(=O)Nc2ccc(Cl)cc2)c1 | inconclusive: 30.1 µM [inhibitor, partial curve, poor fit] | – |
| Cc1ccc2c(c1N)C(=O)c1ccccc1C2=O | active: 4.26 µM | – |
| Cc1ccc2nc3c(cc2c1)CC1(C(=O)N(C)C(=O)N(C)C1=O)C1COCCN31 (stereo not drawn) | active: 15.1 µM | – |
| CCc1nc2ccc(N3CCN(C)CC3)cc2nc1CC | inconclusive: 21.3 µM [inhibitor, single point] | – |
| COc1ccc(C(CC(=O)Nc2ccccn2)N2Cc3ccccc3C2=O)cc1 (stereo not drawn) | inconclusive: 37.9 µM [inhibitor, single point] | – |
| Cc1ccc2c(c1)CNc1ccccc1O2 | inconclusive: 23.9 µM [inhibitor, partial curve, poor fit] | – |
| Cc1ccc(N2C(=O)NC(=O)/C(=C\c3cc(C)n(-c4sc5c(c4C#N)CCCC5)c3C)C2=O)cc1 | inconclusive: 21.3 µM [inhibitor, partial curve, poor fit] | – |
| Cc1ncc(CN2CCCC(C(=O)c3ccc(C(C)(C)C)cc3)C2)s1 (stereo not drawn) | inconclusive: 26.9 µM [inhibitor, single point] | – |
| Cn1c(O)c(C=Nc2ccccc2-c2ccccc2)c(=O)n(C)c1=O | inconclusive: 16.9 µM [inhibitor, partial curve] | – |
| Cn1c(O)c(C(=Nc2ccccc2)SCc2ccc(Cl)cc2)c(=O)n(C)c1=O | inconclusive: 23.9 µM [inhibitor, single point] | – |
| CSc1nc(N)c(N=Nc2ccc([As](=O)(O)O)cc2)c(=O)[nH]1 | inconclusive: 21.3 µM [inhibitor, partial curve] | – |
